In all, about 110,000 compounds were measured (“z-score”: median about -0.1, highest 2% from about 2 on). This is one part of the list. Activity calls are given as the source filed them.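 How the source made its calls: active means z-score in the third read window above 3 or below -3; inactive means the rest.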 Non-standard residues stand in square brackets, D forms with d. Residues, ends and D or L forms follow the SMILES beside them. ξ: configuration not given here. *: point of attachment. Boc = CC(C)(C)OC(=O)*; ξP = O=C(O)C1CCCN1
target: Metabotropic glutamate receptor 8 (Rattus norvegicus) (UniProt P70579); experiment: mGluR8 Gi/Go-coupled signaling modulation – cell-based, rat, thallium flux, HTS, primary screen (AID 488969); details: HEK293 rat mGluR8, GIRK (G protein-gated inwardly rectifying potassium channel) thallium flux, FluoZin2; at 10 µM; stronger effect = higher value; submaximal glutamate (EC20) added with thallium
UniProt P70579, sequence (P70579 whole entry, looked up): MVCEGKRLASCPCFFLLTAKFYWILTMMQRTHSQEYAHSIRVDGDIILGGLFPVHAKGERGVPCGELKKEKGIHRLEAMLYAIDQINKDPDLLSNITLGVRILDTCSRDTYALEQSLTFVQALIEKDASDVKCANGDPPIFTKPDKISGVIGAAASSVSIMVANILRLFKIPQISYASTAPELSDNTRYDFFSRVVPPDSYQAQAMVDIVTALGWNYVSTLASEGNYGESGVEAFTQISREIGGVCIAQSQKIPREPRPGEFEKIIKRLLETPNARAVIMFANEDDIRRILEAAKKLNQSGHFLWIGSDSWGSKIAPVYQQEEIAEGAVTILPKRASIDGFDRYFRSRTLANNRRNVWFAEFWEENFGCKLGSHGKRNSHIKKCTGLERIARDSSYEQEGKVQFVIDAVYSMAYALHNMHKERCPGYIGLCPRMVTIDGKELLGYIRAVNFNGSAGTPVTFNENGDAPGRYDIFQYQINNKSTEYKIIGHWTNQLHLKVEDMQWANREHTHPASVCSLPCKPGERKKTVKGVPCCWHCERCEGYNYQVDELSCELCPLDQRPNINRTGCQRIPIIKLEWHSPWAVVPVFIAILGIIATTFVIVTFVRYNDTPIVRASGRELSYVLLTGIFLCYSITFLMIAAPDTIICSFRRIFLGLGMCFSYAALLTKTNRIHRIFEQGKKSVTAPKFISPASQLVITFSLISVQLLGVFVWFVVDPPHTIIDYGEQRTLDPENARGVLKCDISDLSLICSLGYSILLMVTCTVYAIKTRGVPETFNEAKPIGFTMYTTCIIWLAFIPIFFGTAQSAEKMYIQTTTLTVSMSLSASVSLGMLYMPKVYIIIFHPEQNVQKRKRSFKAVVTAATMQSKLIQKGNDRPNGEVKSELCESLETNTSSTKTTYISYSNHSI

SMILES | z-score
O=C(Nc1ncnc2c1ncn2C1OC(COC(=O)c2ccccc2)C(F)C1O)c1ccccc1 (stereo not drawn) | -0.732
CCC(CC)C(=O)NCCc1ccc(F)cc1 | -0.0973
Cc1ccc(C)c(N2CCN(c3cnn(-c4nc5ccccc5s4)c(=O)c3Cl)CC2)c1 | -0.242
Cn1c(=O)c2c(nc(CN3CCN(CCO)CC3)n2Cc2cccc3ccccc23)n(C)c1=O | 0.179
CC(=O)c1ccc(OCc2ccc(Oc3c(Cl)cccc3[N+](=O)[O-])cc2)cc1 | -0.331
Cc1cc(=O)[nH]c(SCC(=O)N2CCC(C(N)=O)CC2)n1 | 0.0875
CCn1cnc2sc(C)c(C)c2c1=O | -0.0555
CCc1ccc(CCC(=O)Nc2sc3c(c2C#N)CCCC3)o1 | 0.975
COc1ccc2c(C(=O)CN3CC(C)OC(C)C3)c[nH]c2c1 (stereo not drawn) | -0.0527
NCCc1nnc(SCc2ccc(F)cc2)o1 | -0.111
c1ccc2c(NC3CCCC3)nnc(NC3CCCC3)c2c1 | active: 3.18
CCOc1cccc2cc(C(=O)N3CCc4ccccc43)c(=O)oc12 | 0.17
CCc1ccccc1N1C(=O)C2CC(C)=C(C)CC2C1=O (stereo not drawn) | 0.39
COc1ccccc1-c1nc2ccccc2nc1-c1ccccc1OC | -0.156
CC1(C)Cc2ccccc2-c2nnc(SCc3ccccc3)n21 | -0.0898
CCOC(=O)c1[nH]c2ccc(F)cc2c1NC(=O)CN1CCN(C/C=C/c2ccccc2)CC1 | -0.0288
O=C(COC(=O)c1ccc2c(c1)C(=O)N(c1cccc3ncccc13)C2=O)c1ccc(Cl)cc1 | -0.619
CCOC(=O)C1CCCN(C(=O)c2cc3ncc(Br)cn3n2)C1 (stereo not drawn) | 0.117
CC(C)Cn1c(SCC(=O)NCc2ccc(Cl)cc2)nnc1-c1cccc(S(=O)(=O)N2CCOCC2)c1 | -0.0221
O=C(O)c1ccc(C2CCCCC2)cn1 | -0.374
N#Cc1nc(Cc2cccc3ccccc23)oc1NCCN1CCOCC1 | 0.571
CSc1ncccc1C(=O)OCc1ccc(COC(=O)c2cccnc2SC)cc1 | -0.347

SMILES | z-score
CCOc1ccccc1N1CC(C(=O)NCCc2ccc(S(N)(=O)=O)cc2)CC1=O (stereo not drawn) | 0.0844
CCCCn1c(N)c(N(CCOC)C(=O)CSc2nc3ccc(C)cc3[nH]2)c(=O)[nH]c1=O | 0.298
COc1ccccc1C(=O)COC(=O)c1ccccc1OCC(=O)Nc1ccc(SC(F)F)cc1 | 1.1
O=C(N/N=C/c1cn(Cc2ccccc2)c2ccccc12)c1cccnc1 | -0.306
Cc1ccc(Nc2nc3c([nH]2)c(=O)n(C)c(=O)n3C)cc1 | 0.461
Cc1cc(C)cc(OCC(=O)NNC(=O)c2cc3ccccc3oc2=O)c1 | 0.267
O=C(COC(=O)C12CC3CC(CC(C3)C1)C2)NC12CC3CC(CC(C3)C1)C2 | -0.0359
CCN(CC)C(=O)CSc1nc2ccc(NC(=O)CSc3nnc(N)s3)cc2s1 | -0.276
COC(=O)CNC(=O)C1CCCN1C(=O)CNC(=O)OC(C)(C)C (stereo not drawn) (Boc-Gly-[ξP]-Gly-OMe) | 0.349
Cc1ccc(N/N=C2/CCCNC2=O)cc1 | 0.0566
O=C(C/C=N/OCc1c(Cl)cccc1Cl)c1ccc(Cl)cc1 | 0.24
O=C(CCC(=O)N1CCCc2ccccc21)N1CCN(S(=O)(=O)c2ccccc2)CC1 | 0.123
CCn1c(Cn2nnc(-c3ccccc3)n2)nnc1SCC(=O)N1CCOCC1 | 0.0376
CCOC(=O)CSc1nc(C)c2ccc(C)cc2n1 | -0.413
O=C(NCC1CCCO1)C1CCN(C(=O)c2ccc(Br)cc2)CC1 (stereo not drawn) | -0.38
Cc1cccc(NC(=O)NCCN2C(=O)C3C4C=CC(C4)C3C2=O)c1 (stereo not drawn) | 0.0971
Cc1c(NC(=O)C(C)Sc2ccccc2)c(=O)n(-c2ccccc2)n1C (stereo not drawn) | 0.277
O=C(C1CCN(c2nnc(-n3cccc3)s2)CC1)N1CCN(c2cccc(C(F)(F)F)c2)CC1 | -0.569
CC1(C)CC(=O)C=C(Nc2ccc(F)cc2F)C1 | -0.519
CC(C)Oc1cccc(C(=O)NC(=S)Nc2cccc(C(F)(F)F)c2)c1 | 0.755
CCCC(=O)Nc1cc(C)c(NC(=O)c2ccncc2)cn1 | 0.502
Fc1cccc(Nc2nc3ccccc3n3nnnc23)c1 | 0.0225

SMILES | z-score
Cn1nc(-c2ccccc2)c(C(O)c2ccccc2C(F)(F)F)c1Cl (stereo not drawn) | -0.268
N#C/C(=C\c1c(N(Cc2ccccc2)Cc2ccccc2)nc2ccccn2c1=O)C(N)=O | -1.96
COc1cc(OC)cc(-c2nc(-c3ccccc3OC)no2)c1 | -0.117
Cc1ccc(S(=O)(=O)NC(=O)Nn2c(C)nnc2C)cc1 | 0.0611
O=C1OC(Nc2ccc(Br)cn2)c2ccccc21 (stereo not drawn) | 1.06
COc1ccc(OC)c(NC(=O)C2CCCN(S(=O)(=O)c3cccc4cccnc34)C2)c1 (stereo not drawn) | -0.558
CCOC(=O)C1=C(C)NC(=O)C(C(N)=O)C12CCCC2 (stereo not drawn) | -0.24
CCCCOc1ccc(/C=N/NC(=O)c2csc(C)c2C)cc1 | 1.05
Cc1cccc(NCc2cc(Cl)ccc2O)n1 | -0.0871
Cc1ccc(C)c(N(CC(=O)NN=C2CCCCCCC2)S(C)(=O)=O)c1 | -0.202
COc1ccc(S(=O)(=O)Nc2nnc(C(C)(C)C)s2)cc1 | 0.0489
Cc1ccc(CNC(=O)CN2CCC(C(N)=O)CC2)cc1 | 0.66
Cc1cccc(N(CC(=O)O)CC(=O)O)c1 | -0.158
O=C(NCc1ccccc1)c1ccc2c(=O)n(CC3CCCO3)c(=S)[nH]c2c1 (stereo not drawn) | 0.0305
CCCNC(=O)c1cccc(COCC(F)(F)F)c1 | 0.43
O=C(NC1CCCCC1NC(=O)c1cccs1)c1cccs1 (stereo not drawn) | -0.398
Cc1cc(C)cc(C(=O)NC(=S)Nc2ccc(-c3cc4ccccc4oc3=O)cc2)c1 | 0.106
CCCNc1nc(NCC)nc(OC)n1 | 0.697
CCCOc1ccc(N2C(=O)CC(N(CCc3ccc(S(N)(=O)=O)cc3)C(C)=O)C2=O)cc1 (stereo not drawn) | -0.143
COc1ccc(CNc2nc3nc(C)cc(C)n3n2)cc1 | -0.0238
COc1cccc(/C=N/NC(=O)c2cc3c(OC)c(OC)ccc3[nH]2)c1OC | -0.499
Cc1ccccc1C(=O)NN1C(=O)CSC1=S | -0.222

SMILES | z-score
Cc1nc2oc(C(=O)c3ccc(Br)cc3)c(N)c2c2c1COC(C)(C)C2 | 0.0116
COc1ccc(-c2noc(CCC(=O)NC3CCCCC3)n2)cc1OC | 0.0256
CCCCC(=O)N=c1sc2cc(S(C)(=O)=O)ccc2n1C | -0.518
CCCN1C(=O)c2cc(C(=O)NCc3ccc(OC)cc3)ccc2C1O (stereo not drawn) | -0.335
Cc1ccc(C)c(C(=O)NCCN(C)C)c1 | 0.237
CC(C(=O)Nc1ccccc1C(=O)N1CCOCC1)N(c1ccccc1)S(C)(=O)=O (stereo not drawn) | -0.255
CSc1nc(N2CCCC2)c2c(c1C#N)CC(C)(C)OC2 | -0.933
CC(C)(C)NC(=O)CSc1nc2ccc(NC(=O)CSc3nnc(N)s3)cc2s1 | -0.901
O=C1C2C3C=CC(C3)C2C(=O)N1c1ccc2ccccc2n1 (stereo not drawn) | -0.206
COc1cc(/C=C/C(=O)Nc2ccncc2)cc(OC)c1OC | -0.0404
COc1ccc(C2NC(=O)c3sc4nc(C)c(C(C)=O)c(-c5ccc(Cl)cc5)c4c3N2)cc1 (stereo not drawn) | -0.59
CCSc1nnc(Cc2cc(=O)[nH]c(=O)[nH]2)n1-c1cc(C)ccc1C | -0.0405
O=C(CSc1nc(-c2ccccc2)cc(C(F)(F)F)n1)N1CCOCC1 | 1.21
CC(C)C(=O)N1CCN(c2nc(-c3ccccc3)c3c(c2C#N)CCCC3)CC1 | -1.7
CCOC(=O)C(C(C)=O)C(c1ccc(OC)cc1)C(C(C)=O)C(=O)OCC (stereo not drawn) | 1.81
Cc1ccc(CN2CCN(/N=C\C(Br)=C\c3ccccc3)CC2)cc1 | 0.0103
CC(C)(C)c1nn(-c2ccccc2)c2nc(Cl)c(C=O)cc12 | 0.527
O=C1c2ccccc2C(=O)N1CCSc1n[nH]c(=S)s1 | 0.477
O=C(CSc1nnc2c3ccccc3c3ccccc3c2n1)Nc1ccccc1 | -0.0629
O=c1cc(Nc2ccc3c(c2)OCCO3)[nH]c(=O)n1Cc1ccc(F)cc1 | 0.183
CN(C(=O)CSc1nnc(-c2ccncc2)n1C)C1CCS(=O)(=O)C1 (stereo not drawn) | -0.767
CCOC(=O)N1CCC(=NNC(=O)c2ccc(O)cc2)CC1 | -0.136

SMILES | z-score
N/C(=N\OC(=O)CCCCCN1C(=O)c2ccccc2C1=O)c1ccccc1 | -0.204
O=C(O)[C@@H]1CCCC[C@@H]1C(=O)N1CCc2ccccc2C1CN1C(=O)c2ccccc2C1=O (stereo partly drawn) | -1.07
O=C(CCN1C(=O)C2CC=C(Cl)CC2C1=O)NC1CCCCC1 (stereo not drawn) | 0.761
COc1ccc(NC(=O)CCc2c(C)nc3nc(C)nn3c2C)cc1 | -0.217
O=C(Nc1cccc(C(F)(F)F)c1)C1CCCCC1 | 0.0112
COC(=O)C(C(=O)Nc1ccc(OC)cc1)C1CCCCCC1 (stereo not drawn) | 0.107
O=C(COC(=O)CNC(=O)c1cccc([N+](=O)[O-])c1)Nc1cccc(S(=O)(=O)N2CCCC2)c1 | -0.387
Cc1c(Cl)cnc(NC(=O)COC(=O)CCC(=O)c2cccs2)c1Cl | -0.28
COCCN1C=C(C(=O)OC)C(c2ccccc2C(F)(F)F)C(C(=O)OC)=C1 | -0.31
C=CCNc1nc(N2CCCCC2)c(C#N)c2c1CN(Cc1ccccc1)CC2 | 0.721
Cc1ccc(NC(=O)N2CCC(c3nc4c(nnn4Cc4cccc(Cl)c4)c(=O)[nH]3)CC2)cc1 | 0.913
COc1cccc(N(C(=O)CNC(=O)c2ccco2)C(C(=O)NC2CCCCC2)c2ccncc2)c1 (stereo not drawn) | -0.325
COc1cc(/C=N/n2cnnc2)ccc1OCCOc1ccccc1 | -0.279
O=C(Nc1ccc2c(c1)OCCO2)c1ccco1 | 0.098
CCOC(=O)COc1ccc(-c2nnc(-c3ccccc3)o2)cc1 | -0.176
O=C1CC(c2cccc([N+](=O)[O-])c2)c2c(ccc3ccccc23)N1 (stereo not drawn) | -0.0524
O=S(=O)(c1ccc(S(=O)(=O)N(Cc2cccs2)CC2CCCO2)cc1)N1CCCCC1 (stereo not drawn) | 1.7
CCSc1ncc(Cl)c(C(=O)Nc2ccccc2)n1 | -0.43
CCOC(=O)Cn1c(=O)oc2cc(S(=O)(=O)Nc3cccc(C)c3)ccc21 | 0.058
CC/C(=N\NC(=O)c1ccccc1Cl)c1ccc(Br)s1 | 0.216

Reference: PubChem BioAssay AID488969 (Vanderbilt High Throughput Screening Facility, 2010)
